Results as given in PubChem BioAssay AID504333 (National Center for Advancing Translational Sciences (NCATS), 2011).
In all, about 360,000 compounds went through this assay and about 16,000 (4.4%) were called active. The inconclusive results got no clear call from the source; some entries with a clear call stand among them for comparison. The call rests on the fitted dose curve; in most records, active means well fitted inhibition curve with a large enough effect; inconclusive means small, poorly fitted or top-dose-only effect; inactive means no such curve, though single readings can be large or run the other way. Potencies beside an inconclusive call are fits to weak or partial responses and may not hold up.

target: Bromodomain adjacent to zinc finger domain protein 2B (Homo sapiens) (UniProt Q9UIF8); assay: qHTS Assay for Inhibitors of BAZ2B; details: AlphaScreen BAZ2B-H3K14Ac peptide displacement; activity change, negative = inhibition: at 114 µM (top of the series); further: nearly all actives have a fitted effect of over 60% in size
UniProt Q9UIF8, sequence (Q9UIF8 whole entry, looked up, the tested form may be a part): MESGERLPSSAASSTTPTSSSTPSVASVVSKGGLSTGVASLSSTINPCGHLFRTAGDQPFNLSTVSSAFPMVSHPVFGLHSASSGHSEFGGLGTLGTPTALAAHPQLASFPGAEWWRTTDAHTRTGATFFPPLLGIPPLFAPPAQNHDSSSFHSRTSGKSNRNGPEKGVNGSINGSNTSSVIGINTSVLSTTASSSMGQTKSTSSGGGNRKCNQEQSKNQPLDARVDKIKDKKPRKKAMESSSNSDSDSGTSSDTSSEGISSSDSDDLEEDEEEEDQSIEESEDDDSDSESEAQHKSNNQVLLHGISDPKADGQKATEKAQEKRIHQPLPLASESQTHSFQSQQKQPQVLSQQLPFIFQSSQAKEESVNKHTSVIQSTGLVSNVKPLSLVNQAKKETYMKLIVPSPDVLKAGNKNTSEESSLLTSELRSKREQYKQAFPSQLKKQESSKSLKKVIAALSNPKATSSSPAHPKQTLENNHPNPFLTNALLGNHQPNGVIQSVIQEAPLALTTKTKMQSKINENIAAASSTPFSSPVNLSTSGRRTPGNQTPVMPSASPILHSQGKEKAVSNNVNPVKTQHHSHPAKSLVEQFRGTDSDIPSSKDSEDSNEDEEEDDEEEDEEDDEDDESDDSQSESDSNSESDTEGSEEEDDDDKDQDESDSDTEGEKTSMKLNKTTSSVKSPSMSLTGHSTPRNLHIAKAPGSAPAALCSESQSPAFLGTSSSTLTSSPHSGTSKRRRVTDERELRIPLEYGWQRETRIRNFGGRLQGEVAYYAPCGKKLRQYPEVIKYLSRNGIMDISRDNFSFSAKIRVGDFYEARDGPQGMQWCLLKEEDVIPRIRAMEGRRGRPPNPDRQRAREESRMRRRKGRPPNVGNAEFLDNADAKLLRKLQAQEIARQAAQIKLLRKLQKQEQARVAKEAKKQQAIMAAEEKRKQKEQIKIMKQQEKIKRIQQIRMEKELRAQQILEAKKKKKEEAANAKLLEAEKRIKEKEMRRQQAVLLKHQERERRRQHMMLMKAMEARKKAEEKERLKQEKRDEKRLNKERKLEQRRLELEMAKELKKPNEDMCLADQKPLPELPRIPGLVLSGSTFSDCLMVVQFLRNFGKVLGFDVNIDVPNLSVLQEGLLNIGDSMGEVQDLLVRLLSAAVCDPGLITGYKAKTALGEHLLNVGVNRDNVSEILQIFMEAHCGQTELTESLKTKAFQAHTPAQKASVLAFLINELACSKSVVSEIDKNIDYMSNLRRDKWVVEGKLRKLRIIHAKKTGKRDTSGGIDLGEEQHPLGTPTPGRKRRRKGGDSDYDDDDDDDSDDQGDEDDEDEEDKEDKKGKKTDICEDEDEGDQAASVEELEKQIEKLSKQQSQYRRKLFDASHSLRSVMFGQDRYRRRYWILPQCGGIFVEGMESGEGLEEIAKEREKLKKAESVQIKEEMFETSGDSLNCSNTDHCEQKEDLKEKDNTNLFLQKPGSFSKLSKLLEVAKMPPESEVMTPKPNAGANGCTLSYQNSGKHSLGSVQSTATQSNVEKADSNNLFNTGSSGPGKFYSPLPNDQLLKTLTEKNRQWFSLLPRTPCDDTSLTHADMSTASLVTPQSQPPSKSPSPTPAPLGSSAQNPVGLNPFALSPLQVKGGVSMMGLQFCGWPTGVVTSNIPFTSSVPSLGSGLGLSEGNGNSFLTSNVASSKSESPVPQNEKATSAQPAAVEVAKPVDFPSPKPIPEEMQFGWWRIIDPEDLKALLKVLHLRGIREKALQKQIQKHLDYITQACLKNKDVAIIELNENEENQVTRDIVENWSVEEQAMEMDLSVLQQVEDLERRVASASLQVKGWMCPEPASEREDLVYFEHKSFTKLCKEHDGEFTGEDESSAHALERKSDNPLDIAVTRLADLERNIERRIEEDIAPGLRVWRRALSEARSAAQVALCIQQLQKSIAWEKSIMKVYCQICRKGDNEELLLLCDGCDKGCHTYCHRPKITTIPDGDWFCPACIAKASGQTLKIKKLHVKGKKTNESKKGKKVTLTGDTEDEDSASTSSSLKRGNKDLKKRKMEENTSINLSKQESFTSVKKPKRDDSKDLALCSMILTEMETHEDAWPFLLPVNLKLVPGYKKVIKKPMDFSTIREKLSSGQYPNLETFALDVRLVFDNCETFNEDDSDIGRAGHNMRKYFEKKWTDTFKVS
Procedure, shortened: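 AlphaScreen luminescence quantifies BAZ2B engagement of H3K14Ac peptide; the protein and biotinylated peptide are both at 50 nM final, buffer PBS pH 7.4 with 0.01% Tween-20, all steps at room temperature.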
On the % scale 0 is the no-effect control and ±100 the full control effect; potency means the concentration at half of the fitted maximal effect; tags describe the fitted curve by direction and shape.

Question: `Cc1ccc(C)c(N2CCN(C(=O)Cc3c(C(=O)O)[nH]c4ccc(Cl)cc34)CC2)c1` was tested. Which “activity change, negative = inhibition” value did it give?
Answer: Its value is inactive: -20.5%.

Question: How did the Potency turn out when `CN(C)CCN(C(=O)c1ccc(S(=O)(=O)N(C)c2ccccc2)cc1)c1nc2cc3c(cc2s1)OCCO3` was run?
Answer: The Potency was inconclusive: 39.8 µM [inhibitor, partial curve].

Question: `Cc1ccccc1NC(=S)NNc1ncc(C(F)(F)F)cc1Cl` was tested. Which “activity change, negative = inhibition” value did it give?
Answer: The value was inactive: -5.87%.

Question: `COc1ccccc1N1CCN(C(=O)CN(c2ccccc2OC)S(=O)(=O)c2ccccc2)CC1` was tested. Which “activity change, negative = inhibition” value did it give?
Answer: The value was inactive: -36.9%.

Question: `COc1ccc(Br)cc1CN1CCSCC1` was tested. Which Potency did it give?
Answer: The Potency was inconclusive: 79.4 µM [inhibitor, single point].

Question: `C=CCN=C1S/C(=C/c2cccc([N+](=O)[O-])c2)C(=O)N1CC=C` was tested. Which Potency did it give?
Answer: Its Potency is inconclusive: 20 µM [inhibitor, full curve].

Question: Which Potency does the source give for `CN1CCN(S(=O)(=O)c2ccc(N3CCN(c4ccc(O)cc4)CC3)c([N+](=O)[O-])c2)CC1` here?
Answer: Its Potency is inconclusive: 89.1 µM [inhibitor, single point].

Question: For `O=C(COC(=O)COc1ccccc1[N+](=O)[O-])Nc1ccc(S(=O)(=O)N2CCCCC2)cc1`, which Potency is on record?
Answer: The Potency was inconclusive: 89.1 µM [inhibitor, single point].

Question: For `CCC(C)c1ccc(NC(=O)COC(=O)C2=COCCO2)cc1` (stereo not drawn), which Potency is on record?
Answer: Its Potency is inconclusive: 89.1 µM [inhibitor, single point].

Question: For `CCOc1ccccc1CNC(=O)C1CCN(C(=O)N2CC(CC)Oc3ccc(C)cc32)CC1` (stereo not drawn), which Potency is on record?
Answer: The Potency was inconclusive: 28.2 µM [inhibitor, partial curve].

Question: `O=C(Nc1ccc2c(c1)OCO2)c1cc(-c2ccc(O)cc2)on1` was tested. Which “activity change, negative = inhibition” value did it give?
Answer: The value was inactive: -20.4%.

Question: Which Potency does the source give for `CN(C)S(=O)(=O)c1ccc(C(=O)Nc2nnc(-c3cccs3)o2)cc1` here?
Answer: The Potency was inconclusive: 89.1 µM [inhibitor, single point].

Question: How did the “activity change, negative = inhibition” value turn out when `Cc1cc(C)c(C)c(S(=O)(=O)Nc2ccc3cn[nH]c3c2)c1C` was run?
Answer: The value was inactive: -1.66%.

Question: For `Cc1ccn2c(=O)cc(COc3ccc(NC(=O)COc4ccc(Cl)cc4)cc3)nc2c1`, which “activity change, negative = inhibition” value is on record?
Answer: The value was inactive: 5.59%.

Question: With `CSc1ccc(/C=C/C(=O)OCC(=O)N(C)CCC#N)cc1` as the molecule, how does the Potency read?
Answer: The Potency was inconclusive: 89.1 µM [inhibitor, single point].

Question: How did the “activity change, negative = inhibition” value turn out when `Cc1cc(C)cc(NC(=O)CSc2n[nH]c(-c3cccnc3)n2)c1` was run?
Answer: Its value is inactive: 3.56%.

Question: With `CCN(CC)c1nc(-c2cccc(OC)c2O)nc2ccccc12` as the molecule, how does the Potency read?
Answer: Its Potency is inconclusive: 63.1 µM [inhibitor, partial curve, poor fit].

Question: How did the “activity change, negative = inhibition” value turn out when `CCOC(=O)c1c(NC=O)sc2c1CCC2` was run?
Answer: Its value is inactive: 0.162%.

Question: For `COc1ccc(N(C(=O)c2ccc(OC)c(OC)c2)S(=O)(=O)c2ccc(Cl)cc2)cc1`, which Potency is on record?
Answer: Its Potency is inconclusive: 56.2 µM [inhibitor, partial curve, poor fit].

Question: Which Potency does the source give for `Cc1ccnc(NC(=O)CCc2c[nH]c3ccccc23)c1` here?
Answer: The Potency was inconclusive: 56.2 µM [inhibitor, partial curve].

Question: How did the “activity change, negative = inhibition” value turn out when `Cc1ccc(NC(=O)Cn2c(O)c(N=NC(N)=S)c3ccccc32)cc1` was run?
Answer: Its value is inactive: 0.9%.

Question: For `O=C(NCc1ccco1)c1cc2sccc2n1Cc1ccc(F)cc1`, which Potency is on record?
Answer: Its Potency is inconclusive: 89.1 µM [inhibitor, single point].

Question: `O=[N+]([O-])c1cccc(N/N=C/c2cccc3ccccc23)c1` was tested. Which Potency did it give?
Answer: Its Potency is inconclusive: 79.4 µM [inhibitor, single point].

Question: How did the Potency turn out when `CNCCCOc1cccc(OC(C)C)c1` was run?
Answer: The Potency was active: 50.1 µM.

Question: How did the Potency turn out when `Nc1ccc(Oc2cc(N)cc(Oc3ccccc3)c2)cc1` was run?
Answer: The Potency was active: 50.1 µM.

Question: Which Potency does the source give for `COc1ccc(-c2cc(=O)oc3cc(OC(C)C(=O)Nc4ccc(CN5CCOCC5)cc4)ccc23)cc1` (stereo not drawn) here?
Answer: Its Potency is inconclusive: 28.2 µM [inhibitor, full curve].

Question: Which Potency does the source give for `CN(c1ncc(C(F)(F)F)cc1Cl)N1C(=O)c2cccc([N+](=O)[O-])c2C1=O` here?
Answer: Its Potency is inconclusive: 70.8 µM [inhibitor, single point].

Question: Which “activity change, negative = inhibition” value does the source give for `CCN(CC(=O)Nc1ccc(OC)cc1)C(=O)c1ccc2c(c1)NC(=O)C(C)S2` (stereo not drawn) here?
Answer: The value was inactive: -1.1%.

Question: Which “activity change, negative = inhibition” value does the source give for `O=[N+]([O-])c1cccc(C(O)C23CN4CN(CN(C4)C2)C3)c1` (stereo not drawn) here?
Answer: The value was inactive: 4.59%.

Question: How did the Potency turn out when `CCS(=O)(=O)c1ccc2c(c1)N(S(=O)(=O)c1ccc(C)cc1)CC(C(=O)O)O2` (stereo not drawn) was run?
Answer: Its Potency is active: 89.1 µM.

Question: `CCOC(=O)c1cc(-c2ccc(N)cc2)sc1N` was tested. Which Potency did it give?
Answer: Its Potency is active: 31.6 µM.

Question: For `c1ccc(COc2ccc(-c3sc(Nc4ccccc4)n[n+]3-c3ccccc3)cc2)cc1`, which Potency is on record?
Answer: Its Potency is active: 44.7 µM.

Question: Which “activity change, negative = inhibition” value does the source give for `Cc1ccc(NC(=O)c2nc[nH]c2C(=O)N(C)Cc2ccccc2)cc1` here?
Answer: Its value is inactive: 4.01%.

Question: How did the Potency turn out when `CCOc1ccc(C(=S)NC2CCCCC2)cc1OCC` was run?
Answer: The Potency was inconclusive: 50.1 µM [inhibitor, partial curve].

Question: `COc1ccccc1NC(=O)Cn1c(=O)oc2cc(S(=O)(=O)N3CCCC3)ccc21` was tested. Which “activity change, negative = inhibition” value did it give?
Answer: The value was inactive: -32%.

Question: `Cc1cc2c(cc1NS(=O)(=O)c1ccc(F)cc1)n(C)c(=O)c(=O)n2C` was tested. Which “activity change, negative = inhibition” value did it give?
Answer: Its value is inactive: -0.183%.

Question: With `O=C(N/N=C/c1ccoc1)c1ccc(Br)cc1` as the molecule, how does the Potency read?
Answer: The Potency was inconclusive: 2.51 µM [inhibitor, full curve, poor fit].

Question: `CN(Cc1ccccc1)C(=O)CCNS(=O)(=O)c1ccc2c(c1)oc(=O)n2C` was tested. Which Potency did it give?
Answer: The Potency was inconclusive: 89.1 µM [inhibitor, single point].

Question: `Brc1ccc(C2Nc3cccc4cccc(c34)N2)s1` was tested. Which Potency did it give?
Answer: The Potency was inconclusive: 44.7 µM [inhibitor, partial curve].

Question: For `Cc1ccc(C(=O)NCCNS(=O)(=O)c2ccccc2[N+](=O)[O-])cc1`, which “activity change, negative = inhibition” value is on record?
Answer: Its value is inactive: 0.287%.

Question: For `O=C(Nc1ncccc1O)c1cccc(S(=O)(=O)N2CCN(c3ccc(F)cc3)CC2)c1`, which “activity change, negative = inhibition” value is on record?
Answer: Its value is inactive: -16.8%.

Question: How did the Potency turn out when `COc1ccc(-c2cnc(N)n2C)cc1` was run?
Answer: Its Potency is inconclusive: 20 µM [inhibitor, full curve].

Question: Which “activity change, negative = inhibition” value does the source give for `CCOC(=O)CSc1nc2c([nH]c3ccccc32)c(=O)n1-c1ccc(OCC)cc1` here?
Answer: The value was inactive: 1.13%.

Question: `Cc1cccc(OCC(=O)Nc2ncn[nH]2)c1C` was tested. Which Potency did it give?
Answer: Its Potency is active: 50.1 µM.

Question: Which Potency does the source give for `CCc1ccc2[nH]c(=O)c(C3C(C#N)=C(N)Oc4c3ccc3cccnc43)cc2c1` (stereo not drawn) here?
Answer: The Potency was inconclusive: 89.1 µM [inhibitor, single point].

Question: For `C(=N\Nc1ncnc2nc[nH]c12)/c1cccs1`, which Potency is on record?
Answer: Its Potency is active: 50.1 µM.

Question: Which “activity change, negative = inhibition” value does the source give for `COc1cnn(-c2ccc(F)cc2)c(=O)c1Br` here?
Answer: The value was inactive: -30.6%.

Question: Which Potency does the source give for `O=C(CSc1cn(CC(=O)N2CCOCC2)c2ccccc12)Nc1ccccc1C(F)(F)F` here?
Answer: The Potency was inconclusive: 79.4 µM [inhibitor, single point].
